The whole screen tested about 310,000 compounds, of which about 2,200 (0.71%) showed an effect of 50% or more. Effects have a minus sign here. The list shows a part of the results.

human ether-à-go-go-related gene (hERG) potassium channel, sequence (Q12809 whole entry, looked up): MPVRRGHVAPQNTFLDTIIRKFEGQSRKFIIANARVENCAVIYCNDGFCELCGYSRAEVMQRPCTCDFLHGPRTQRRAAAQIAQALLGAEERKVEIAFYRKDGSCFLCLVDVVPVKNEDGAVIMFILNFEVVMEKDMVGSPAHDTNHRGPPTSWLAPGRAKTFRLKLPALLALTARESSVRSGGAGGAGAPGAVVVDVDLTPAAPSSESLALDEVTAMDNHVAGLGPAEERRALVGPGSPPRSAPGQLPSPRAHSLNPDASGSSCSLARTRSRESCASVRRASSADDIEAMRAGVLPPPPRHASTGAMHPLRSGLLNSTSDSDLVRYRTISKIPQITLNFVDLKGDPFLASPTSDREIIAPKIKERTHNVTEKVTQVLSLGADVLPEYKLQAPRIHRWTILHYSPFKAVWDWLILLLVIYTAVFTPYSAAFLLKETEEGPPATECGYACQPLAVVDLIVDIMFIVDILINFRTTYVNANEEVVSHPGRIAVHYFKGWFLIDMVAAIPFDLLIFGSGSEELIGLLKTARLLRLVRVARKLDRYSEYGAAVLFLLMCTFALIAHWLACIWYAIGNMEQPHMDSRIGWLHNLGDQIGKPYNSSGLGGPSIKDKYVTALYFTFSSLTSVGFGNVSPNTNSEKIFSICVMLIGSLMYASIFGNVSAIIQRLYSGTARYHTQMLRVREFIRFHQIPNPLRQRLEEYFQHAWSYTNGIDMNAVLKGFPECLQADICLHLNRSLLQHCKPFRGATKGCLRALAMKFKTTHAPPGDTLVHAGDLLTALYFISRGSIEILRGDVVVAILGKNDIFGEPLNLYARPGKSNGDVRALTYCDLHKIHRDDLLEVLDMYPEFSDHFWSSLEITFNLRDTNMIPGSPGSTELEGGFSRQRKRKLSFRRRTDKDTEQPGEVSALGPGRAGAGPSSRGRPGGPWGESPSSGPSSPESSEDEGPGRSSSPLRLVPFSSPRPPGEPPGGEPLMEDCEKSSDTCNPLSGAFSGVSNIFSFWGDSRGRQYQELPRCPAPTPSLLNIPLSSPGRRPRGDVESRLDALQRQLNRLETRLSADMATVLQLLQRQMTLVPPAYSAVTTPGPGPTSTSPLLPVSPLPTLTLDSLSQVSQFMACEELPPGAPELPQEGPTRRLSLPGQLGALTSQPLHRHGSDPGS

This assay has as its target human ether-à-go-go-related gene (hERG) potassium channel (human, UniProt Q12809). In words: primary screen, population patch clamp on CHO cells stably expressing hERG.
On to `Cc1onc(-c2ccccc2)c1C(=O)N/N=C/c1cccs1`, for which the “hERG current change (%, negative = inhibition) at 1uM” value is 14.2%.
Then `CCc1cc(C(=O)NNC(=S)Nc2cc(C)ccc2C)cs1`, with -2.24%.
Then `CCCC1=[N+](CC)CCn2c(C)ccc21.[Br-]`, with 12.8%; and `Cc1cnc(C(=O)OC(C)C(=O)Nc2ccc3c(c2)OCCO3)cn1` (stereo not shown), with 13.7%.
To `Cc1cc2c(Nc3ccc(C(=O)O)cc3)ncnc2s1.Cl` belongs 23.6%.
As to `CCCCN(Cc1cc2ccccc2[nH]c1=O)C(=O)c1ccccn1`, the “hERG current change (%, negative = inhibition) at 1uM” value is reported as 17.2%.
As for `Cc1c(CC(=O)N2CCN(C(=O)C3COc4ccccc4O3)CC2)c(=O)oc2c(O)c(O)ccc12` (stereo not shown), the “hERG current change (%, negative = inhibition) at 1uM” value is 9.48%.
Then `CC(=O)Oc1ccc(C(=O)[C@H]2[C@H]3C(=O)N(c4ccc(C)cc4)C(=O)[C@H]3[C@@H]3C=CC=NN32)cc1`, with 13.8%; and `COc1ccc(C(=O)NCC(=O)NCCc2c[nH]c3ccccc23)cc1OC`, with -5.32%; and `CC(C)Cn1c(SCC(=O)N2CC(=O)Nc3ccccc32)nc2ccccc21`, with 6.57%.
Consider `CN1C2CCC1/C(=C/c1ccccn1)C(=O)/C2=C\c1ccccn1`, for which the “hERG current change (%, negative = inhibition) at 1uM” value is on record as 2.53%.
Then `Cc1ccc(OCCNC(=O)c2ccc3c(c2)OCO3)cc1`, with 11.2%; and `COc1ccc(S(=O)(=O)N2CC3CC(C2)c2cccc(=O)n2C3)cc1` (stereo not shown), with 9.01%.
Then `Cc1ccc(C)c(NC(=S)NCc2ccc3[nH]c4c(c3c2)CCCC4)c1`, with 11.4%; and `CCOC(=O)C1C(=O)CC(C)(O)C(C(=O)OCC)C1c1cc(Br)ccc1OC` (stereo not shown), with 10.7%; and `O=C(NC(Cc1c[nH]c2ccccc12)C(=O)O)c1cccs1` (stereo not shown), with 12.1%.
Then `O=C(NCCOc1ccccc1)C(=O)c1c[nH]c2ccccc12`, with 3.44%.
Take `Cc1cc(=O)oc2c(C)c3occc3cc12`: the “hERG current change (%, negative = inhibition) at 1uM” value was determined as 16.3%.
To `Cc1noc(C)c1C(=O)N(CC(=O)Nc1ccccc1Br)Cc1ccco1` belongs 2.06%.
To `Cn1nnnc1SCC(=O)NC(=O)NCc1ccccc1` belongs 11.8%; to `CC(=O)OC(C(=O)NC1CCCCC1)c1ccc(C)cc1` (stereo not shown), 10.9%.
Then `CCN(CC)c1ccc(NC(=O)Nc2cccc(C(C)=O)c2)cc1`, with 13.2%; and `O=C1CC[C@@H](O)CCN1CC[C@H](Sc1ccc(Br)cc1)c1ccccc1`, with 3.73%.
Consider `CN(C)C(=O)CN1C(=O)NC(c2ccccc2)(c2ccccc2)C1=O`, for which the “hERG current change (%, negative = inhibition) at 1uM” value is on record as 5.02%.
In the case of `CCC(=O)c1ccc(N2CCN(C(=O)c3ccccc3Br)CC2)c(F)c1`, the “hERG current change (%, negative = inhibition) at 1uM” value is listed as -0.036%.
As to `CCC1CCCCN1CCNC(=O)C1CCN(S(=O)(=O)c2c(C)noc2C)CC1` (stereo not shown), the “hERG current change (%, negative = inhibition) at 1uM” value is listed as 8.34%.
To `CC(C)c1ccc2c(c1)C(=O)NC(C)(C)C2` belongs 2.08%; to `O=C(O)C1(c2ccccc2)CCN(S(=O)(=O)c2cccc(Cl)c2)CC1`, 12.3%; to `O=C(CN1CCN(Cc2cccc(Cl)c2)C1=O)N1CCC2(CC1)OCCO2`, 12.7%.
As to `COc1ccc(C(=O)O/N=C(\N)Cc2ccc(Cl)cc2Cl)cc1OC`, the “hERG current change (%, negative = inhibition) at 1uM” value was determined as 12%.
Take `Cc1nc(NC(=O)CSc2nnc(C)n2CC2CCCO2)sc1C` (stereo not shown): the “hERG current change (%, negative = inhibition) at 1uM” value is -0.227%.
Then `Cc1oc2cc3oc(=O)c(CC(=O)O)c(C)c3cc2c1-c1ccccc1`, with 15.3%; and `O=c1ncn(-c2ccccc2F)c2ncccc12`, with -2.27%.
Then `COc1cccc(C2SCC(=O)N2c2cccc(C)c2)c1OC` (stereo not shown), with 2.47%.
In the case of `CC1=C/C(=C/N(C)c2ccccc2)C(=O)S1`, the “hERG current change (%, negative = inhibition) at 1uM” value is on record as -1.19%.
Then `Cn1ncc(N=Cc2ccccc2)c1C(=O)Nc1cccc(Cl)c1`, with 12.6%.
To `COc1cc(C2OCC3C(c4cc(OC)c(OC)c(OC)c4)OCC23)cc(OC)c1OC` (stereo not shown) belongs 11.8%; to `O=C(N/N=C/c1ccc(N2CCOCC2)cc1)c1ccc(NS(=O)(=O)c2cccs2)cc1`, 10.6%.
To `Br.O=C(CNc1ccc(F)cc1)c1ccccc1` belongs 14.6%; to `CN1CCN(NC(=O)c2cc(S(=O)(=O)Nc3ccc(Cl)cc3)ccc2Cl)CC1.Cl`, 10.3%; to `Cc1ccc(Cl)cc1NC(=O)N[C@@H](C)C(=O)O`, 9.9%.
Regarding `COc1cc(/C=N/NC(=O)c2ccc(NC(=O)C3CC3)cc2)ccc1OC(C)=O`, the “hERG current change (%, negative = inhibition) at 1uM” value stood at 5.98%.
Then `COc1cccc(/C=C2\SC(=O)N(CCC(=O)N3CCC(C(=O)O)CC3)C2=O)c1`, with 9.22%.
To `Cc1cccc(NC(=S)NC(=O)c2ccc(Br)o2)c1` belongs 12.7%.
As for `CCCNS(=O)(=O)c1ccc(OCC(=O)N2CCCC2)cc1`, the “hERG current change (%, negative = inhibition) at 1uM” value stood at 11.7%.
To `CCOc1ccccc1OCCNC1CCCC1` belongs 9.35%; to `COc1ccc(CCNS(=O)(=O)c2cccc([N+](=O)[O-])c2)cc1`, -2.95%.
Take `CCCC(c1nnnn1C1CCCC1)N1CCN(c2ccccc2F)CC1.Cl` (stereo not shown): the “hERG current change (%, negative = inhibition) at 1uM” value was 1.94%.
Then `CSc1ccccc1OCc1cc(C(=O)NC2CCOC(C)(C)C2)no1` (stereo not shown), with 11.9%; and `O=C(Nc1nccs1)c1ccc(Cl)c(S(=O)(=O)N2CCCCC2)c1`, with 6.8%; and `COc1ccc(C(=O)NCc2cc(C)nc3ccccc23)cc1OC`, with 13.1%.
Then `Cc1ccccc1OCC(=O)NS(=O)(=O)c1ccc(Cl)cc1`, with 12.3%; and `CC(=O)Nc1cccc(OCCCOc2ccc([N+](=O)[O-])cc2)c1`, with 11.1%; and `O=C(Nc1cccc(F)c1)c1ccco1`, with 14.1%.
To `CCOCN(C(=O)Cn1c(C(C)O)nc2ccccc21)c1c(C)cccc1CC` (stereo not shown) belongs 10.7%.
Consider `CCCCNc1nc2c(c(=O)n(Cc3ccccc3)c(=O)n2C)n1C`, for which the “hERG current change (%, negative = inhibition) at 1uM” value worked out at 14.5%.
To `Cc1ccc(NS(=O)(=O)c2ccc(Cl)c(C(=O)O)c2)cc1S(=O)(=O)N1CCOCC1` belongs 9.78%; to `CCCOC(=O)c1ccc(NC(=O)CCOc2ccccc2)cc1`, -0.614%.

Values taken from PMC4336329 (PLoS ONE, 2015).
